The values that follow come from the supplement of paper PMC11369174, “Proteome-scale characterisation of motif-based interactome rewiring by disease mutations” (Molecular Systems Biology, 2024).

The list shows a part of the results. Values come from read counts of a selection and are noisy.

T1: PTK2_Focal-AT__Q05397_891_1050
T1 chain: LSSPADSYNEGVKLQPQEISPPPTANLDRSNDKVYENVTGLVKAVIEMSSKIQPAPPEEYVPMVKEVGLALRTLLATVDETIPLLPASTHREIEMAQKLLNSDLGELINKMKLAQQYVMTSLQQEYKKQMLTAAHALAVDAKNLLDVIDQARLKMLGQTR

T2: SHC_PH__P29353_149_317
T2 chain: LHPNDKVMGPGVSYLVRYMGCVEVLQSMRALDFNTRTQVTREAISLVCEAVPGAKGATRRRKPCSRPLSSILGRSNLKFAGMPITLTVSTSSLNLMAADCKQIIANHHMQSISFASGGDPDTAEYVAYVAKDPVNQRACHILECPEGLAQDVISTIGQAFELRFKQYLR

T3: RDX_FERM_1_P35241_5_295
T3 chain: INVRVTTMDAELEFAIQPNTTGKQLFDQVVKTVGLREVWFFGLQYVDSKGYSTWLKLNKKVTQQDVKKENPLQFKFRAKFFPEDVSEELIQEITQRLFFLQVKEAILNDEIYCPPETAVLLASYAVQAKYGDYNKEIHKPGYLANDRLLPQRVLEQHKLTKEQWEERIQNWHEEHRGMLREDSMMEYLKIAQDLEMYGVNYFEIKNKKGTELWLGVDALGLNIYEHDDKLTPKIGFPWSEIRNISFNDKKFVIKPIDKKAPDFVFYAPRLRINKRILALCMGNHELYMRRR

One test has as its target REPS1___Q96D71_226_314. Put plainly: mean normalised NGS count of phage-displayed peptide after selection on bait (% of reads); baits are purified protein domains named by gene / domain / UniProt id / residues; peptides come from disordered regions of human proteins; higher = stronger enrichment / binding. To be noted: replicate selections in which the peptide was seen: 2.
Turning to WGVVTVTTIGYGDNVP [KCNQ1 305-320 mut P51787.K318N], the “mean normalised NGS count” value was determined as 0.148.

With NPWAQDEWEIPRQSLR [BLK 227-242 wt], the “mean normalised NGS count” value was determined as 0.65. On to ANFVHSQRREAFLYRS [PDE4D 180-195 mut Q08499.S190A], for which the “mean normalised NGS count” value is 0.0679.

With AAFPSKATFWWVSGLV [ABCC6 208-223 wt], the “mean normalised NGS count” value is 8.07.

Take LAMLHASDLASPSSAN [GTPBP3 333-348 mut Q969Y2.D337H]: the “mean normalised NGS count” value amounted to 0.539. Turning to QSPGRNSISPGRNGIS [APC 2322-2337 wt], the “mean normalised NGS count” value was 1.23.

A further test deals with RAN2-B_Ran-BP1-PH-domain__P49792_2924_3050. Described as above. To be noted: replicate selections in which the peptide was seen: 6.
KPLYTALPPESAFPPA [ZEB2 892-907 mut O60315.Q901E]: the “mean normalised NGS count” value was 61.2. The same measure, in the same setting: next, ALTSNQEYLYLSMPLD [FGFR1 759-774 mut P11362.D768Y]: 24.5; GVDPSFLAALPDDIRR [HUWE1 2967-2982 wt]: 0.24. Still for that read-out and setting: next, GVDPSFLAALPDDIHR [HUWE1 2967-2982 mut Q7Z6Z7.R2981H]: 4.53; MYQVPLPLDRDGTLVW [PGAP2 1-16 mut Q9UHJ9.R16W]: 5.63.

The target in another test is PTBP1_RRM_2_P26599_157_285. Described as above. The conditions noted are these: replicate selections in which the peptide was seen: 6.
On to HGLLQNPYAIPPLFPI [BRCA1 971-986 mut P38398.R979C], for which the “mean normalised NGS count” value came to 0.456.

As for SHINAGLNMGILGSYD [TRAF7 366-381 mut Q6Q0C0.R371G], the “mean normalised NGS count” value amounted to 1.35. On the same count and under the same terms, as for GGGLLKLPEDALVKAE [MSX1 120-135 mut P28360.V120G], the figure is 0.235; as for PLLPSPFGAGGLGLPV [GLIS2 415-430 wt], 0.0646; as for ARLNMGILGSYDPQQI [TRAF7 370-385 wt], 0.906.

QEQLLASGSLLGSPDV [MUTYH 311-326 mut Q9UIF7.S321L]: the “mean normalised NGS count” value worked out at 3.

For AGLNMGILGSYDPQQI [TRAF7 370-385 mut Q6Q0C0.R371G], the “mean normalised NGS count” value is 68.5.

Another test has as its target REPS1___Q96D71_226_314. The test is described as above. To be noted: replicate selections in which the peptide was seen: 4.
On to GRGRGRGRRGGRGQNS [MRE11 569-584 wt], for which the “mean normalised NGS count” value is 6.9.

Turning to MVTRLLQQQNLPQTGE [INPPL1 243-258 wt], the “mean normalised NGS count” value came out at 3.07. On to WVAHRKAQHLSATVAE [ZNF526 155-170 wt], for which the “mean normalised NGS count” value is 6.38. On the same count and under the same terms, next, LAELDPEPTNPFQPIA [ARL13B 246-261 wt]: 23.7.

For another test, the target named is T1, PTK2_Focal-AT__Q05397_891_1050. Described as above. The conditions noted are these: replicate selections in which the peptide was seen: 4.
VLTAILLLLRELDAEG [CFAP410 216-231 wt]: the “mean normalised NGS count” value turned out to be 8.07. Same read-out and setting: as for ALITDMLHQLLSMHGG [KCNQ1 607-622 mut P51787.L619M], the figure is 38.4.

The next test concerns the target T2, SHC_PH__P29353_149_317. Described as above. The conditions noted are these: replicate selections in which the peptide was seen: 6.
IFVQNLVPDWWGPDGT [SLC12A3 324-339 mut P55017.R334W]: the “mean normalised NGS count” value worked out at 6.95.

The next test deals with T3, RDX_FERM_1_P35241_5_295. Described as above. The conditions noted are these: replicate selections in which the peptide was seen: 3.
With EEIFHMTYDLASAVVR [HCN1 282-297 wt], the “mean normalised NGS count” value turned out to be 0.0961. For the molecule LYLLQEHSDEAIWAAL [ABCC6 1360-1375 mut O95255.D1361Y], the “mean normalised NGS count” value came to 0.606. On the same count and under the same terms, as for EEIFHMTYDLASAVVR [HCN4 282-297 wt], the figure is 0.0961.

On to EEIFHMTYDLASAVVR [HCN3 282-297 wt], for which the “mean normalised NGS count” value is 0.0961.

The target of the next test is T1, PTK2_Focal-AT__Q05397_891_1050. The test is described as above. The conditions noted are these: replicate selections in which the peptide was seen: 5.
YSGESLEDLMAKMKNM [UBA5 389-404 mut Q9GZZ9.D389Y]: the “mean normalised NGS count” value is 1.59. The same measure, in the same setting: as for ELNGYMEWISKAEEVI [CACNA1A 388-403 wt], the figure is 37.6.

A further test concerns the target T3, RDX_FERM_1_P35241_5_295. Described as above. The conditions noted are these: replicate selections in which the peptide was seen: 4.
As for YYLLTGDTRLELELRP [APOB 992-1007 mut P04114.P994L], the “mean normalised NGS count” value worked out at 0.173. Same read-out and setting: as for YDLLPFLSSTISPYDR [CRYAA 34-49 mut P02489.Y48D], the figure is 0.0504.

For the next test, the target named is T2, SHC_PH__P29353_149_317. The test is described as above. To be noted: replicate selections in which the peptide was seen: 2.
As to LYEHLTLEKSSSNLAV [BRCA2 2362-2377 wt], the “mean normalised NGS count” value came out at 0.355. Still for that read-out and setting: as for YRYHGHSMSDPGVSYR [PDHA2 287-302 wt], the figure is 0.0955. Still for that read-out and setting: next, VALQLTEQDLETNKLD [BMPR2 654-669 mut Q13873.E661Q]: 0.0539; YRYHGHSMSDPGVSYR [PDHA1 287-302 wt]: 0.0955; AMSDQVRKATQQAEQL [MYH11 1754-1769 mut P35749.R1758Q]: 1.79.

In another test the target is T3, RDX_FERM_1_P35241_5_295. The test is described as above. The conditions noted are these: replicate selections in which the peptide was seen: 5.
For SYYPTSSSTSFMSSSS [EMD 180-195 wt], the “mean normalised NGS count” value came to 1.73.

Still in this test, the particulars now being: replicate selections in which the peptide was seen: 2.
For EKAAMYDIISSPSKDS [NIPBL 340-355 wt], the “mean normalised NGS count” value was 0.121.

Take MFDLLKEETEVKDLPE [ABCB6 564-579 mut Q9NP58.G579E]: the “mean normalised NGS count” value stood at 0.14. With TQHSYTYNVSNLDVRQ [KMT2D 4890-4905 wt], the “mean normalised NGS count” value amounted to 0.0183. For the molecule MYDIISSPSKDSTNLT [NIPBL 344-359 mut Q6KC79.K357N], the “mean normalised NGS count” value is 0.00611.

A further test has as its target RUNX1T1-MYND___Q06455_510_559. Described as above. The conditions noted are these: replicate selections in which the peptide was seen: 3.
Turning to VAWVSNMPHLLADIES [SYNGAP1 1155-1170 mut Q96PV0.S1165L], the “mean normalised NGS count” value turned out to be 0.704.

A further test concerns the target T1, PTK2_Focal-AT__Q05397_891_1050. The test is described as above. To be noted: replicate selections in which the peptide was seen: 2.
Take PLTLKEMLESIRETAE [BBS1 149-164 wt]: the “mean normalised NGS count” value is 0.106. Same read-out and setting: as for VVRLLELRTAEPEVRA [MYO7A 1694-1709 mut Q13402.Q1699E], the figure is 0.475; as for EIQASIDQIFSRLEAL [GOSR2 36-51 mut O14653.R50C], 6.66; as for MAFYSAAWVLSALTWH [CASR 1-16 mut P41180.L11S], 0.406.

Another test deals with REPS1___Q96D71_226_314. The description is as above. To be noted: replicate selections in which the peptide was seen: 3.
For QRNFDKILAEWKQKYE [MYH6 1448-1463 wt], the “mean normalised NGS count” value worked out at 6.58. For the molecule LAARGLAVLGEDNAPL [KISS1R 383-398 wt], the “mean normalised NGS count” value stood at 6.12.

Take QRNFDKILAEWKQKYE [MYH7 1448-1463 wt]: the “mean normalised NGS count” value amounted to 6.58.

The next test has as its target T1, PTK2_Focal-AT__Q05397_891_1050. The test is described as above. To be noted: replicate selections in which the peptide was seen: 3.
Take NDSLMRQMRELEDLFA [DES 342-357 mut P17661.R355L]: the “mean normalised NGS count” value turned out to be 0.463.

The next test concerns the target REPS1___Q96D71_226_314. The description is as above. The conditions noted are these: replicate selections in which the peptide was seen: 5.
For the molecule NPWAQDEWEIPQQSLR [BLK 227-242 mut P51451.R238Q], the “mean normalised NGS count” value turned out to be 1.85. Still for that read-out and setting: next, WLSHYWMPKWINATDP [ASNS 532-547 wt]: 25.7.

The target in a further test is T2, SHC_PH__P29353_149_317. The description is as above. The conditions noted are these: replicate selections in which the peptide was seen: 3.
Turning to TWIENKLYGMSDPNWP [RET 1055-1070 wt], the “mean normalised NGS count” value amounted to 0.0309.

The target of another test is RAN2-B_Ran-BP1-PH-domain__P49792_2924_3050. The test is described as above. To be noted: replicate selections in which the peptide was seen: 5.
Consider QDDLFWLTFEGKPLED [ISG15 118-133 wt], for which the “mean normalised NGS count” value was 0.437.

The target in another test is RUNX1T1-MYND___Q06455_510_559. The test is described as above. To be noted: replicate selections in which the peptide was seen: 2.
With ELSPHLPVLIRDSFYS [SKI 392-407 mut P12755.A399V], the “mean normalised NGS count” value worked out at 0.411.
